PubChem BioAssay AID360 (National Center for Advancing Translational Sciences (NCATS), 2006)
Out of some 48,000 compounds screened, about 550 (1.1%) were called active. Roughly 4% stayed inconclusive and do not appear here. Rule as the data show it: active = potency below about 15 µM; inconclusive = mostly about 16 µM to 33 µM; inactive = weaker than that. Some of the results follow.
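Also: the screen sought inhibitors.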
Potency is read from the fitted curve at half-maximal effect.

What follows are molecules tested against Lysosomal acid glucosylceramidase (Homo sapiens) (UniProt P04062) (assay: Glucocerebrosidase). Conditions: purified enzyme, resorufin glucoside fluorescence (screen aimed at inhibitors), 20 min.
Chain of UniProt P04062 (P04062 whole entry, looked up): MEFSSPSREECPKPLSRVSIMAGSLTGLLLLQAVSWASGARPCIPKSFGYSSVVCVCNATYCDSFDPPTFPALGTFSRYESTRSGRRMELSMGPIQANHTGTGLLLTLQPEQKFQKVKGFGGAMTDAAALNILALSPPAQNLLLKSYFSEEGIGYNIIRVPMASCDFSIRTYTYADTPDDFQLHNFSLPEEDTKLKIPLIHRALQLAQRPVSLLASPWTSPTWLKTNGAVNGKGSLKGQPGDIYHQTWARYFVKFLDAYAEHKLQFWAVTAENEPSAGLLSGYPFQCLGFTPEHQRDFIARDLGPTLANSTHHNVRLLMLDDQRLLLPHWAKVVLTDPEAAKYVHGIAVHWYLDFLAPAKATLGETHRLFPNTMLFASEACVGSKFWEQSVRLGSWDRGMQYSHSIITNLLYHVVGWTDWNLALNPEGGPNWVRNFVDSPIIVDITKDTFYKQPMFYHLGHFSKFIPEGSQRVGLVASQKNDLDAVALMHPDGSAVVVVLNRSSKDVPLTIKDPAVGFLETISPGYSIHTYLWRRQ
How it was run: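 Wild-type enzyme at 0.2 nM final in 50mM citric acid/KH2PO4, 10mM sodium taurocholate, 0.01% tween-20, pH 5.9, with resorufin beta-D-glucopyranoside at 30 uM final. Compounds titrated, 20 min at RT, red fluorescence read; AC50 from titration.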
`Cc1nnc(N(C)C(=O)c2cccnc2)s1` was tested, and the Potency was inactive: > 76.9 µM.
For `CCc1nc2c(sc3nc4c(cc32)COC(C)(C)C4)c(=O)n1Cc1ccco1`, the Potency was inactive: > 76.9 µM.
`CC1(C)Cn2c(nnc2-c2cccc(O)c2)S1` was tested, and the Potency was inactive: > 76.9 µM.
For `Cc1ccc(C)n1-n1cnc2scc(-c3cccs3)c2c1=O`, the Potency was inactive: > 76.9 µM.
In the case of `CC(C)CC(=O)Nc1ccc2oc(-c3ccncc3)nc2c1`, the Potency is reported as inactive: > 76.9 µM.
`N#Cc1c(NC(=O)c2ccc(Br)o2)n(-c2ccccc2)c2nc3ccccc3nc12` was tested, and the Potency was inactive: > 76.9 µM.
In the case of `CC(Oc1ccccc1)C(=O)OCC(=O)NC(=O)NCc1ccco1` (centres undefined), the Potency is reported as inactive: > 76.9 µM.
`CCOC(=O)N1CCN(S(=O)(=O)N(C)C)CC1` was tested, and the Potency was inactive: > 76.9 µM.
For `O=C(CSc1nnc(-c2ccco2)n1-c1ccccc1)N1CCOCC1`, the Potency was inactive: > 76.9 µM.
In the case of `O=C(O)Cn1c(C(F)(F)F)nc2ccccc21`, the Potency is reported as inactive: > 76.9 µM.
In the case of `CC(C)(C)NC(=O)c1ccc2c(c1)C(=O)N(C1CCCCC1)C2=O`, the Potency is reported as inactive: > 76.9 µM.
In the case of `COc1ccccc1NC(=O)CN1CCCCC1`, the Potency is reported as inactive: > 76.9 µM.
With `O=S(=O)(Nc1ccc2c(c1)OCCO2)c1cccc2cccnc12` the Potency was inactive: > 76.9 µM.
`O=C(OCc1nnc(-c2ccccc2)o1)c1ccc2c(c1)C(=O)N(CCc1ccccc1)C2=O` was tested, and the Potency was inactive: > 76.9 µM.
In the case of `CC(C)(C)n1nnnc1C(c1cccc(C#N)c1)N1CCC(Cc2ccccc2)CC1` (centres undefined), the Potency is reported as inactive: > 76.9 µM.
For `c1ccc(-n2c(SCc3nc(-c4cccs4)no3)nnc2-c2ccco2)cc1`, the Potency was inactive: > 76.9 µM.
For `Cc1nnc(SCC(=O)Nc2nc3c(s2)CC(C)CC3)s1` (centres undefined), the Potency was inactive: > 76.9 µM.
`O=C(CN1C(=O)C2C3C=CC(C3)C2C1=O)NCCc1ccccc1Cl` (centres undefined) was tested, and the Potency was inactive: > 76.9 µM.
`CCS(=O)(=O)N1CCN(Cc2ccccc2OC)CC1` was tested, and the Potency was inactive: > 76.9 µM.
`CN(C)C(CNC(=O)NC1CCCCC1)c1cccnc1` (centres undefined) was tested, and the Potency was inactive: > 76.9 µM.
In the case of `COc1cc(NC(=O)Cc2ccc(Cl)cc2)ccc1NC(=O)c1ccco1`, the Potency is reported as inactive: > 76.9 µM.
In the case of `O=C(O)c1ccccc1C(=O)Nc1ccccc1`, the Potency is reported as inactive: > 76.9 µM.
In the case of `CCCCN(C)CCCNC(=O)c1ccc2c(c1)NC(=O)C(N1CCOCC1)S2` (centres undefined), the Potency is reported as inactive: > 76.9 µM.
With `CCn1c(=O)c2ccccc2n2c(SCC(=O)N3CCCc4ccccc43)nnc12` the Potency was inactive: > 76.9 µM.
For `O=C(NCC1CCCO1)c1ccc(/C=N/O)nc1` (centres undefined), the Potency was inactive: > 76.9 µM.
With `O=C(CCN1CCCCC1)c1ccc2c(c1)OCCO2` the Potency was inactive: > 76.9 µM.
`Cc1ccc2c(Cl)cc(Cl)c(OCC(=O)NC(=O)NCc3ccco3)c2n1` was tested, and the Potency was inactive: > 76.9 µM.
With `COCCn1nnnc1C(c1cccs1)N1CCN(c2cc(C)ccc2C)CC1` (centres undefined) the Potency was inactive: > 76.9 µM.
With `CCc1ccc2[nH]cc(C(=O)N3CCCCCC3)c(=O)c2c1` the Potency was inactive: > 76.9 µM.
With `CCC(=O)N1CCc2cc(S(=O)(=O)NCCC(=O)Nc3ccccc3C)ccc21` the Potency was inactive: > 76.9 µM.
For `CCOC(=O)c1cc(C)n(-n2cnnc2)c1C`, the Potency was inactive: > 76.9 µM.
`CCOc1ccccc1-n1c(SCC(N)=O)nnc1-c1cccnc1` was tested, and the Potency was inactive: > 76.9 µM.
In the case of `CCOC(=O)c1sc(=NC(=O)c2ccc(S(=O)(=O)N3CCOCC3)cc2)n(C)c1C`, the Potency is reported as inactive: > 76.9 µM.
`O=C(CN(C1CC1)S(=O)(=O)c1ccc(S(=O)(=O)N2CCCCCC2)cc1)Nc1ccccc1` was tested, and the Potency was inactive: > 76.9 µM.
With `c1cc2c(cc1Cn1cnnn1)OCO2` the Potency was inactive: > 76.9 µM.
For `c1ccc(CCNc2nc3ccccc3n3nnnc23)cc1`, the Potency was inactive: > 76.9 µM.
For `COc1ccccc1NC(=O)N(Cc1ccco1)Cc1cc2ccc(C)c(C)c2[nH]c1=O`, the Potency was inactive: > 76.9 µM.
For `Cc1cc(C)n(-c2ccc(C(=O)Nc3sccc3C(N)=O)cc2)n1`, the Potency was active: 14.9 µM.
In the case of `Cc1cc(C)nc(N2CCC(C(=O)NCC3CCCCC3)CC2)n1`, the Potency is reported as inactive: > 76.9 µM.
`Cc1ccc(C2=Nc3ccccc3NC(C)(c3ccc(C)o3)C2)o1` (centres undefined) was tested, and the Potency was inactive: > 76.9 µM.
In the case of `Nc1ccc2c(c1)ncn2CCCn1cnc2cc(N)ccc21`, the Potency is reported as inactive: > 76.9 µM.
In the case of `O=C(Nc1ccc(F)c(F)c1)NC1CCCCC1`, the Potency is reported as inactive: > 76.9 µM.
`O=C(O)C(c1ccccc1)N1CCCC1` (centres undefined) was tested, and the Potency was inactive: > 76.9 µM.
`COc1ccc(Cl)cc1NC(=O)CSc1nnc(COc2ccccc2)n1C` was tested, and the Potency was inactive: > 76.9 µM.
In the case of `O=C(NCCN1CCOCC1)c1cc2c(=O)n3ccccc3nc2n1Cc1ccccc1`, the Potency is reported as inactive: > 76.9 µM.
For `O=C(NCCCN1CCOCC1)c1cc(-c2ccc(Cl)cc2)on1`, the Potency was inactive: > 76.9 µM.
In the case of `O=S1(=O)NC2CCCCCN2c2ccc(F)cc21` (centres undefined), the Potency is reported as inactive: > 76.9 µM.
With `CC(C)NC(=O)CSc1nc2ccccc2n1-c1ccccc1` the Potency was inactive: > 76.9 µM.
`COC(=O)c1ccc2c(c1)N(Cc1nc(-c3ccc(Cl)cc3)oc1C)C(=O)C1CCCN21` (centres undefined) was tested, and the Potency was inactive: > 76.9 µM.
`COc1ccccc1N1CCN(S(=O)(=O)CC23CCC(CC2=O)C3(C)C)CC1` (centres undefined) was tested, and the Potency was inactive: > 76.9 µM.
`O=C(C1COc2ccccc2O1)N1CCN(c2ccccc2)CC1` (centres undefined) was tested, and the Potency was inactive: > 76.9 µM.
For `CC(=O)CC1OC(=O)C(Br)=C1NCc1ccccc1` (centres undefined), the Potency was inactive: > 76.9 µM.
In the case of `COc1ccc(-n2c(C)cc(C(=O)COc3ccc(-n4cnnn4)cc3)c2C)cc1`, the Potency is reported as inactive: > 76.9 µM.
With `Cc1ccc2c(c1C)NC(C(=O)O)C1CC=CC21` (centres undefined) the Potency was inactive: > 76.9 µM.
For `CC1CCc2nc(NC(=O)C3CCCO3)sc2C1` (centres undefined), the Potency was inactive: > 76.9 µM.
In the case of `O=C(C1CC1)N1CCc2cc(Br)cc(S(=O)(=O)N3CCCCCC3)c21`, the Potency is reported as inactive: > 76.9 µM.
`Cc1cc(CNC(=O)Nc2ccc3c(c2)OCO3)nn1C` was tested, and the Potency was inactive: > 76.9 µM.
In the case of `Nc1ccccc1OCCOCCOCCOc1ccccc1N`, the Potency is reported as inactive: > 76.9 µM.
`COc1cc(C(=O)OCc2cc3ccccc3[nH]c2=O)cc(OC)c1OC` was tested, and the Potency was inactive: > 76.9 µM.
`O=C(Cn1cccc1)NCc1cccs1` was tested, and the Potency was inactive: > 76.9 µM.
In the case of `CCOc1cc(NC(=O)c2ccco2)c(OCC)cc1NC(=O)COc1ccccc1`, the Potency is reported as inactive: > 76.9 µM.
For `CC(C)(C)c1cc(NC(=O)c2cccnc2)no1`, the Potency was inactive: > 76.9 µM.
`COc1ccc(-c2cc(C(F)(F)F)n3ncc(C(=O)O)c3n2)cc1OC` was tested, and the Potency was “inactive”.
With `Cn1c(CCCNC(=O)c2cccs2)nc2ccccc21` the Potency was inactive: > 76.9 µM.
For `N#CC1=C(N)C(C#N)(C#N)C(c2cccnc2)C2COCC=C12` (centres undefined), the Potency was inactive: > 76.9 µM.
In the case of `CC1=Nn2c(nnc2-c2ccccc2Cl)SC1`, the Potency is reported as inactive: > 76.9 µM.
For `O=C(CSc1nnc(NC(=O)C2CC2)s1)Nc1ccc(F)cc1`, the Potency was inactive: > 76.9 µM.
`COc1cc(NC(=O)Nc2cccc(C(C)=O)c2)cc(OC)c1OC` was tested, and the Potency was inactive: > 76.9 µM.
`O=C1CCC(=O)N1CCOP1(=O)COc2ccccc2OC1` was tested, and the Potency was inactive: > 76.9 µM.
With `C/C(N)=C(/C#N)C(=O)COC(=O)c1ccncc1` the Potency was inactive: > 76.9 µM.
`Cc1nnc(NC(=O)CCCN2C(=O)c3ccccc3C2=O)s1` was tested, and the Potency was inactive: > 76.9 µM.
`C=CCn1c(SCCC(=O)O)nnc1-c1cccs1` was tested, and the Potency was inactive: > 76.9 µM.
In the case of `O=CN1CCC(=O)N(Cc2ccccc2)c2ccccc21`, the Potency is reported as inactive: > 76.9 µM.
With `Cc1c(C(=O)N2CCN(C)CC2)oc2ccc(S(=O)(=O)N3CCOCC3)cc12` the Potency was inactive: > 76.9 µM.
With `CN(C)Cc1c(O)ccc2[nH]cnc12` the Potency was inactive: > 76.9 µM.
In the case of `COC(=O)c1ccc(OC(=O)c2ccc(OCc3c(C)noc3C)c(OC)c2)cc1`, the Potency is reported as inactive: > 76.9 µM.
For `CCOC(=O)CC(=O)CSc1ccc2nnc(-c3ccccc3)n2n1`, the Potency was inactive: > 76.9 µM.
`CC(C)CCN1CC(C(=O)NCc2ccccc2)CC1=O` (centres undefined) was tested, and the Potency was inactive: > 76.9 µM.
With `CCCC(=O)Nc1ccccc1NC(=O)CCC` the Potency was inactive: > 76.9 µM.
For `Cc1c(NC(=O)c2ccccc2N)cccc1C(=O)O`, the Potency was inactive: > 76.9 µM.
`CC(=O)c1ccc(N2CCN(C(=O)c3ccc(NC(=O)C4CCCO4)cc3)CC2)cc1` (centres undefined) was tested, and the Potency was inactive: > 76.9 µM.
With `C=CCOc1ccccc1/C=N/O` the Potency was inactive: > 76.9 µM.
With `CN(C)CCNC(=O)C(C(=O)c1ccc(F)cc1)n1ccccc1=O` (centres undefined) the Potency was inactive: > 76.9 µM.
For `Cc1ccc(-c2noc(CSc3nnc(-c4ccccc4)n3C)n2)cc1`, the Potency was inactive: > 76.9 µM.
For `COc1ccc(CCNC(=O)c2c(O)c3c([nH]c2=O)CCCC3)cc1`, the Potency was inactive: > 76.9 µM.
`CC1CC(c2ccccc2)n2nc(N3C(=O)c4ccccc4C3=O)nc2N1` (centres undefined) was tested, and the Potency was inactive: > 76.9 µM.
For `Cc1csc2nc(CNC(=O)c3cccc(C(F)(F)F)c3)cn12`, the Potency was inactive: > 76.9 µM.
In the case of `CCNc1nnc(-c2ccc(C)cc2)o1`, the Potency is reported as inactive: > 76.9 µM.
In the case of `Cc1nc2ccc(Nc3nc4cc(S(=O)(=O)N5CCOCC5)ccc4o3)cc2s1`, the Potency is reported as inactive: > 76.9 µM.
For `O=C(CCc1nc2ccccc2c(=O)[nH]1)N1CCN(C/C=C/c2ccccc2)CC1`, the Potency was inactive: > 76.9 µM.
`O=C(O)CCn1c(=O)c2ccccc2c2ccccc2c1=O` was tested, and the Potency was inactive: > 76.9 µM.
`COc1ccccc1N(CC(=O)NCc1ccccc1)S(C)(=O)=O` was tested, and the Potency was inactive: > 76.9 µM.
In the case of `O=C(COC(=O)C1CCN(S(=O)(=O)c2cccs2)CC1)c1cc2ccccc2o1`, the Potency is reported as inactive: > 76.9 µM.
`Cc1ccccc1CN1C(=O)CSc2ccc(C(=O)N3CCOCC3)cc21` was tested, and the Potency was inactive: > 76.9 µM.
